Over roughly 81,000 sequences, “one-hybrid fitness for binding parS DNA” has its median near -0.17; the highest 2% begin near 0.51. The list shows a part of the results.
B1: Caulobacter ParB omega fusion; a variant is named by its letters at X, in order, B8GW30 (parent)
chain: MESVVVGEPGMSEGRRGLGRGLSALLGEVDAAPAQAPGEQLGGSREAPIEILQRNPDQPRRTFREEDLEDLSNSIREKGVLQPILVRPSPDTAGEYQIVAGERAWRAAQRAGLKTVPIMVRELDDLAVLEIGIIENVQRADLNVLEEALSYKVLMEKFERTQENIAQTIGKSXSHVANXMRLLXLPDEVQSYLVSGELTAXHARAIAAAADPVALAKQIIEGGLSVRETEALARKAPNLSAGKSKGGRPPRVKDTDTQALESDLSSVLGLDVSIDHRGSTGTLTITYATLEQLDDLCNRLTRGI

Variants of: B1
Experiment: one-hybrid fitness for binding parS DNA (scaled: cognate 1, non-cognate 0); higher = stronger binding
Conditions: with parS DNA site
How it was run: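 The reporter was HIS3, with the binding site 19 bp from the promoter, in E. coli USO used for bacterial one-hybrid selection of Caulobacter ParB libraries with four specificity codons randomised. Growth was on M9 lacking histidine, with 0.1 mM IPTG and 5 mM 3-AT, for 48 hours at 37°C. Illumina sequencing covered plasmids before and after selection; three replicate libraries were pooled and variants with under 10 reads dropped. A fitness score is the log change in variant-to-wild-type read ratio, rescaled to the cognate and non-cognate references.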

Variant	one-hybrid fitness for binding parS DNA
QYLD	≤ 0.2
MQPC	≤ 0.2
ITKG	≤ 0.2
CVIT	≤ 0.2
RGGD	≤ 0.2
ATLD	≤ 0.2
NFFS	≤ 0.2
KYHR	≤ 0.2
HSAL	≤ 0.2
NIGL	≤ 0.2
IRHC	≤ 0.2
NHPC	≤ 0.2
FNRL	≤ 0.2
PQDT	≤ 0.2
LTGS	≤ 0.2
KGFR	≤ 0.2
YAVQ	≤ 0.2
GVTG	≤ 0.2
YYVS	≤ 0.2
MSCT	≤ 0.2
SKRS	≤ 0.2
GTHC	≤ 0.2
RVKT	0.761
QVYK	≤ 0.2
RQFH	≤ 0.2

Variant	one-hybrid fitness for binding parS DNA
NADI	≤ 0.2
EISH	0.24
RFRK	≤ 0.2
SSDT	≤ 0.2
PAFF	≤ 0.2
YICV	≤ 0.2
WVRS	≤ 0.2
GKIC	≤ 0.2
RCTQ	≤ 0.2
NEQL	≤ 0.2
QEGG	≤ 0.2
KYYT	≤ 0.2
GCLV	≤ 0.2
PCSV	≤ 0.2
DKIL	≤ 0.2
IMIC	≤ 0.2
QQFC	≤ 0.2
QCIG	≤ 0.2
GQKT	≤ 0.2
MESD	≤ 0.2
NDSR	≤ 0.2
DKNC	≤ 0.2
PWTD	≤ 0.2
NPEN	≤ 0.2
VYKD	≤ 0.2

Variant	one-hybrid fitness for binding parS DNA
GTTT	≤ 0.2
FSSV	≤ 0.2
LMGL	≤ 0.2
RVYF	0.25
WSIC	≤ 0.2
YLFF	≤ 0.2
MAGE	≤ 0.2
LYPN	≤ 0.2
YATW	≤ 0.2
GTGL	≤ 0.2
PFAG	≤ 0.2
SNFV	≤ 0.2
GTVR	≤ 0.2
FASC	≤ 0.2
QDHL	≤ 0.2
HKWS	≤ 0.2
TASK	≤ 0.2
LKSW	≤ 0.2
TDRF	≤ 0.2
EYIS	≤ 0.2
QALP	≤ 0.2
RSSG	0.993
RNFR	≤ 0.2
WMPG	≤ 0.2
PYCR	≤ 0.2

Variant	one-hybrid fitness for binding parS DNA
SWGS	≤ 0.2
QFGL	≤ 0.2
CVNS	≤ 0.2
HREN	≤ 0.2
TNEC	≤ 0.2
ESVR	≤ 0.2
LIGS	≤ 0.2
MGSF	≤ 0.2
QQPS	≤ 0.2
EHGL	≤ 0.2
SPHY	≤ 0.2
NLIT	≤ 0.2
LPLN	≤ 0.2
TSQG	≤ 0.2
HDWY	≤ 0.2
NLKM	≤ 0.2
TREA	≤ 0.2
RPKK	≤ 0.2
FPLT	≤ 0.2
LTTE	≤ 0.2
DIKC	≤ 0.2
DIGR	≤ 0.2
DDYV	≤ 0.2
DPPG	≤ 0.2
PITD	≤ 0.2

Variant	one-hybrid fitness for binding parS DNA
RFMM	0.275
GWNC	≤ 0.2
LVRP	≤ 0.2
QPAQ	≤ 0.2
QCQS	≤ 0.2
QQCR	≤ 0.2
VASM	≤ 0.2
TWNP	≤ 0.2
EIFG	≤ 0.2
FPSD	≤ 0.2
TYKG	≤ 0.2
PNPK	≤ 0.2
PNNI	≤ 0.2
QCAL	≤ 0.2
LWCG	≤ 0.2
ALNM	≤ 0.2
RWRP	≤ 0.2
CNWV	≤ 0.2
VNQF	≤ 0.2
TTMN	≤ 0.2
VDMY	≤ 0.2
GPKG	≤ 0.2
SLQG	≤ 0.2
TFFS	≤ 0.2
QAIG	≤ 0.2

Variant	one-hybrid fitness for binding parS DNA
CRNP	0.273
GHVY	≤ 0.2
VASN	≤ 0.2
SGRL	≤ 0.2
DYNL	≤ 0.2
HYPR	≤ 0.2
QQPK	≤ 0.2
PMWC	≤ 0.2
WDVW	≤ 0.2
WNFR	≤ 0.2
IPPY	≤ 0.2
MRTK	≤ 0.2
QVLG	≤ 0.2
GTGY	≤ 0.2
AVSC	≤ 0.2
GHEC	≤ 0.2
RMQN	0.501
MMVW	≤ 0.2
ARLP	≤ 0.2
DDWG	≤ 0.2
AHKW	≤ 0.2
PITQ	≤ 0.2
PLEK	≤ 0.2
LIVF	≤ 0.2
WTNY	≤ 0.2

Variant	one-hybrid fitness for binding parS DNA
LYLA	≤ 0.2
AGRV	≤ 0.2
DNYG	≤ 0.2
YVQW	≤ 0.2
AIGD	≤ 0.2
YRPR	≤ 0.2
AFPC	≤ 0.2
PYNK	≤ 0.2
PEAM	≤ 0.2
VPGT	≤ 0.2
LLRV	≤ 0.2
RENN	≤ 0.2
AIPG	≤ 0.2
VLTN	≤ 0.2
QDAS	≤ 0.2
TSRN	≤ 0.2
RPGM	≤ 0.2
CYKC	≤ 0.2
LYSK	≤ 0.2
IKYS	≤ 0.2
KPDR	≤ 0.2
KCRM	≤ 0.2
LEHP	≤ 0.2
GTGT	≤ 0.2
ITET	≤ 0.2

Variant	one-hybrid fitness for binding parS DNA
YATK	≤ 0.2
SPHC	≤ 0.2
TSNY	≤ 0.2
ATTF	≤ 0.2
SPTI	≤ 0.2
STIE	≤ 0.2
ITQI	≤ 0.2
GHAV	≤ 0.2
QERY	≤ 0.2
VLDS	≤ 0.2
PTTA	≤ 0.2
VAAV	≤ 0.2
DKSR	≤ 0.2
AEPT	≤ 0.2
MPSV	≤ 0.2
QTIK	≤ 0.2
LQRM	≤ 0.2
QKIT	≤ 0.2
LNPL	≤ 0.2
VIDE	≤ 0.2

Reference: a collection of fitness landscapes (doi:10.1016/j.celrep.2020.107928)
